# Test results taken from US20240409660A1 (ALPINE IMMUNE SCIENCES, published 2024).
# Target: human CTLA-4 (human, UniProt P16410 36-223)
# Assay: flow cytometry, transfected cells
# UniProt P16410, sequence (P16410 36-223): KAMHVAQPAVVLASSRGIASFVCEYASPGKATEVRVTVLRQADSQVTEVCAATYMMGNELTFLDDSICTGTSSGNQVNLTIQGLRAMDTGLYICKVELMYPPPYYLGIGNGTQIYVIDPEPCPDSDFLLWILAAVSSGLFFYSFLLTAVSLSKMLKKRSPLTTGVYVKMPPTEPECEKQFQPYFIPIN
row,Binder,WT parental MFI ratio [ratio]
1,stacked IgV-Fc: Domain 1 CD80 WT / Domain 2 ICOSL WT (Fc fusion) VIHVTKEVKEVATLSCGHNVSVEELAQTRIYWQKEKKMVLTMMSGDMNIWPEYKNRTIFDITNNLSIVILALRPSDEGTYECVVLKYEKDAFKREHLAEVTLSVKADFPTPSISDFEIPGGGGSGGGGSGGGGSDTQEKEVRAMVGSDVELSCACPEGSRFDLNDVYVYWQTSESKTVVTYHIPQNSSLENVDSRYRNRALMSPAGMLRGDFSLRLFNVTPQDEQKFHCLVLSQSLGFQEVLSVEVTLHVAANFSVGGGGSGGGGSAAA[no letters for human IgG1 Fc with C220S R292C N297G V302C (EU numbers)],1
2,stacked IgV-Fc: Domain 1 ICOSL WT / Domain 2 CD80 WT (Fc fusion) DTQEKEVRAMVGSDVELSCACPEGSRFDLNDVYVYWQTSESKTVVTYHIPQNSSLENVDSRYRNRALMSPAGMLRGDFSLRLFNVTPQDEQKFHCLVLSQSLGFQEVLSVEVTLHVAANFSVGGGGSGGGGSGGGGSVIHVTKEVKEVATLSCGHNVSVEELAQTRIYWQKEKKMVLTMMSGDMNIWPEYKNRTIFDITNNLSIVILALRPSDEGTYECVVLKYEKDAFKREHLAEVTLSVKADFPTPSISDFEIPGGGGSGGGGSAAA[no letters for human IgG1 Fc with C220S R292C N297G V302C (EU numbers)],1
